According to PMC4336329 (PLoS ONE, 2015):
The campaign covered roughly 310,000 compounds. About 2,200 (0.71%) showed an effect of 50% or more. The effect is printed as a negative number. The list shows a part of the results.

biological target: human ether-à-go-go-related gene (hERG) potassium channel (human, UniProt Q12809); assay: primary screen, population patch clamp on CHO cells stably expressing hERG
Sequence (Q12809 whole entry, looked up): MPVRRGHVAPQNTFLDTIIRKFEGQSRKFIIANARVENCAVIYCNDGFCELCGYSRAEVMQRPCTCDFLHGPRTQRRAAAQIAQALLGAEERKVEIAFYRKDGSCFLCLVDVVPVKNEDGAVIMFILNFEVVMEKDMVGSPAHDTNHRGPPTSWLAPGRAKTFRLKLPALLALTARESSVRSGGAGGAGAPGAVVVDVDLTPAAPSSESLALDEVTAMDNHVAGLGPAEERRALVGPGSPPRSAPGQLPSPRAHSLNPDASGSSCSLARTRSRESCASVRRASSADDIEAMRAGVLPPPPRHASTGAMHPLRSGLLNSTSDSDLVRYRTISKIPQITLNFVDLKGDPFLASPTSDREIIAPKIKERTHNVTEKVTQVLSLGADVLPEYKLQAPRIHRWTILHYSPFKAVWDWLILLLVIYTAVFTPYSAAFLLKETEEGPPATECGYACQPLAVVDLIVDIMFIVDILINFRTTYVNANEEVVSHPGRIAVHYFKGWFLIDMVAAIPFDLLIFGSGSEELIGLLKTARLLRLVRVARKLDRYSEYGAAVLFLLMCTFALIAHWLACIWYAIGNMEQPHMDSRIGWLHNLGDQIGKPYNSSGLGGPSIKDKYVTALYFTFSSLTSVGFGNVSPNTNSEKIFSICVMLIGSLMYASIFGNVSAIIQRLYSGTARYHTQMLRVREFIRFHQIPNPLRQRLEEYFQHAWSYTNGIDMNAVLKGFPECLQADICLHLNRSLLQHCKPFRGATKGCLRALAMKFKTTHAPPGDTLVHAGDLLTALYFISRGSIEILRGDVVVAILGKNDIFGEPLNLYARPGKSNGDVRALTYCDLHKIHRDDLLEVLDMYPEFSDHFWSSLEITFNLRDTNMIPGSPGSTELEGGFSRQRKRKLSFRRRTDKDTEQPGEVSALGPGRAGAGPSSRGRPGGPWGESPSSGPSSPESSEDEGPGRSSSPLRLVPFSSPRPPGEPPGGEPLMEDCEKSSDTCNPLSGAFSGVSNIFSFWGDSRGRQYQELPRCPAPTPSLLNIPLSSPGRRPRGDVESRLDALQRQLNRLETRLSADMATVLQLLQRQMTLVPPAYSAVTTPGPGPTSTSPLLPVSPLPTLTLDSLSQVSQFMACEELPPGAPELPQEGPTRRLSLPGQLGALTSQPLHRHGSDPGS

Row | Compound | hERG current change (%, negative = inhibition) at 1uM [%]
1 | CCOC(=O)[C@H]1[C@H]2COc3cc(OC)ccc3[C@@H]2N2C(=O)N(c3ccc(Cl)cc3)C(=O)[C@@]12C | 14.8
2 | COc1ccc(NC2CCCN(C(=O)CCN3Cc4ccccc4C3=O)C2)cc1 (centres unmarked) | -3.04
3 | O=C1C(=O)N(CCCn2ccnc2)C(c2ccc([N+](=O)[O-])cc2)/C1=C(\O)c1ccc2c(c1)OCCO2 (centres unmarked) | 11.8
4 | COc1ccc(CCC(=O)NCCc2nc3ccccc3[nH]2)cc1 | -1.74
5 | O=C(CN1CCN(Cc2ccccc2)CC1)N/N=C/c1ccc(Br)s1 | -0.858
6 | Cc1ccc(C(=O)OC(C)CN2CCN(C)CC2)cc1.Cl (centres unmarked) | 10.8
7 | CCCOc1ccc(C(=O)Nc2ccc(S(=O)(=O)N3CCN(C)CC3)cc2)cc1 | 13.3
8 | Cc1nn(-c2ccccc2)c(C)c1C(=O)OCC(=O)N(C)C1CCS(=O)(=O)C1 (centres unmarked) | 3.28
9 | COc1cccc(OC)c1C(=O)Nc1ccc([N+](=O)[O-])cn1 | 2.68
10 | CC(C)CCNC(=O)CN(C(=O)CCC(=O)Nc1ccccn1)c1ccc2c(c1)OCO2 | -10.7
11 | COc1cc(C(=O)Nc2nnc(-c3sccc3C)s2)cc(OC)c1OC | -3.71
12 | Cl.NC(N)=NNC(=O)c1ccccc1Cl | 14
13 | COc1cc(C(=O)O)c([N+](=O)[O-])c(OC)c1OC | 13
14 | COc1ccc(/C(C)=N/NC(=O)c2ccc(NS(=O)(=O)c3cccs3)cc2)cc1 | 5.94
15 | COCCn1c(C)cc(C2=NNC(=NC3CC3)SC2)c1C.Cl | 7.94
16 | O=C(CN1CCCCCC1=O)OCc1ncc(-c2ccccc2)o1 | 10.1
17 | CCN(CC)S(=O)(=O)c1cc(NC(=O)CSc2n[nH]c(N)n2)ccc1C | 5.37
18 | CSc1nnc(-c2sccc2OCc2ccccc2)n1C | -5.47
19 | c1ccc(Oc2ccc(-c3ccnc4nc(N5CCOCC5)nn34)cc2)cc1 | 14.7

Row | Compound | hERG current change (%, negative = inhibition) at 1uM [%]
20 | C=C(C)c1cccc(C(C)(C)NC(=O)Nc2ccc(C(C)=O)cc2)c1 | 8.88
21 | CN(C)S(=O)(=O)c1ccc(NC(=S)NC(=O)C2CCC2)cc1 | 9.81
22 | CC(C)(C)C1CCC(C(=O)NNC(=O)c2ccncc2)CC1 (centres unmarked) | 6.06
23 | CN(CC(=O)Nc1ccc(F)c(F)c1F)C(=O)c1ccc(-n2cncn2)cc1 | -21.8
24 | S=c1[nH]nc(C2CCCCC2)n1/N=C/c1ccccn1 | 20.4
25 | O=C(COc1ccccc1)OCC(=O)N1CCCc2ccccc21 | 13.6
26 | COc1ccc(-n2c(=O)cc(N3CCCCCC3)[nH]c2=O)cc1 | 5.21
27 | CCCc1ccc(S(=O)(=O)N/N=C(/C)c2ccc3c(c2)OCO3)cc1 | 18.1
28 | COc1cc(/C=N/n2cnn(Cc3ccccc3Cl)c2=S)cc(OC)c1OC | 9.18
29 | O=C(Nc1cc(S(=O)(=O)N2CCOCC2)ccc1OCC(F)(F)F)C1=COCCO1 | -10.3
30 | COc1ccc(NC2CCCN(C(=O)CCc3ccncc3)C2)cc1OC (centres unmarked) | 16.1
31 | CCOC(=O)C1=NNC2(c3ccccc3)C(=O)N(c3cccc(Br)c3)C(=O)C12 (centres unmarked) | 5.22
32 | CCCCCCSc1ccc([C@@H]2[C@@H]3C(=O)N(CC)C(=O)[C@@H]3[C@]3(C(=O)OC)CCCCN23)cc1OC.O=C(O)C(F)(F)F | 22.3
33 | Cc1ccc(-n2c(C)nnc2SCC(=O)N2CCc3ccccc3C2)cc1C | 3.66
34 | COCCNc1c2c(nc3c(-c4ccccc4)c(C)nn13)CCC2 | 8.57
35 | O=C(Nc1ccccc1C(=O)Nc1ccccn1)c1cc(F)c(F)cc1Cl | 6.82
36 | O=c1c2ccccc2n2nnnc2n1-c1ccccc1 | 6.58
37 | CN(C)c1ccc(C(=O)OCC(=O)N2CCCC2)cc1 | 18.6
38 | NS(=O)(=O)c1cccc(NC(=O)c2ccc3nc[nH]c3c2)c1 | 12.9

Row | Compound | hERG current change (%, negative = inhibition) at 1uM [%]
39 | CN(CC(=O)Nc1ccc(C(N)=O)cc1)CC(=O)Nc1ccccc1Br | 9.3
40 | Cc1cccc(Oc2ncnc(N)c2[N+](=O)[O-])c1C | 13.3
41 | CC(C)(C)[C@]1(O)CCN2C[C@H]3c4ccccc4CCc4cccc(c43)[C@@H]2C1.Cl | -46.7
42 | O=C(NCc1ccco1)c1ccc([N+](=O)[O-])cc1Cl | 1.33
43 | CN(C)c1ccc(CNC2C3CC4CC(C3)CC2C4)cc1.Cl (centres unmarked) | -0.676
44 | COc1ccccc1N1CCN(S(=O)(=O)CCNC(=O)c2ccc(OC(C)C)cc2)CC1 | 18.9
45 | O=C(N1CCCCC1)N1CCN(c2ccc(Cl)cc2)CC1 | 7.09
46 | Cc1ccc(OC(C)C(=O)Nc2ccncc2)cc1 (centres unmarked) | 8.34
47 | Cc1ccc(S(=O)(=O)Nc2ccc(C(=O)NCCCN3CCOCC3)cc2)cc1[N+](=O)[O-] | 11.7
48 | COCCNC(=O)c1sc2ncn(CC(=O)N3CCCCC3)c(=O)c2c1C | 8.52
49 | COCCN(C(=O)CNC(=O)c1ccco1)C(C(=O)NC1CCCC1)c1ccc(OC)cc1 (centres unmarked) | 1.59
50 | O=C(Nc1cc(-c2ccccc2)[nH]n1)c1ccccc1F | 11.2
51 | Nc1cc2c(cc1C(=O)c1cccc(Br)c1)OCCO2 | 5.57
52 | CCOc1ccc(N2C(=O)CSC23CCCCC3)cc1 | 3.25
53 | CCC(C)(C)C1CCc2[nH]nc(C(=O)NCCN3CCOCC3)c2C1 (centres unmarked) | 15.9
54 | CCCCc1nc2ccccc2[nH]1 | 9.11
55 | O=C(NNc1ccccc1[N+](=O)[O-])Nc1ccc(F)cc1F | 15.3
56 | CCCNC(=O)N1CCN(C(c2ccccc2)c2ccccc2)CC1 | 15.3
